Measurements published in the antibiotic and cytotoxicity screens of Wong et al. (2023).
This is one part of the list.

Columns and labels:
[1] = tested on: HSkMC (human skeletal muscle cells); experiment: cytotoxicity call (relative viability < 0.9); details: 10 µM
[2] = tested on: S. aureus RN4220; experiment: growth inhibition call (relative growth <= 0.2); details: 50 µM

Row | SMILES | cytotoxicity call [1] | growth inhibition call [2]
1 | CC(=O)N(O)CCCCNC(=O)CCC(=O)N(O)CCCCCNC(=O)CCC(=O)N(O)CCCCCN | inactive | inactive
2 | C[C@H](CO)N1C[C@H](C)[C@@H](CN(C)S(=O)(=O)c2cccc(F)c2)Oc2ncc(C#CC3CCCC3)cc2C1=O | inactive | inactive
3 | C[C@H](CO)N1C[C@H](C)[C@@H](CN(C)S(=O)(=O)c2cn(C)cn2)OCCCC[C@H](C)Oc2ccc(NC(=O)CCCN(C)C)cc2C1=O | inactive | inactive
4 | Cc1noc(C)c1S(=O)(=O)Nc1ccc2c(c1)C(=O)N([C@H](C)CO)C[C@@H](C)[C@@H](CN(C)Cc1ccncc1)O2 | inactive | inactive
5 | Cc1noc(C)c1NC(=O)N(C)C[C@H]1Oc2ccc(NC(=O)NC(C)C)cc2C(=O)N([C@H](C)CO)C[C@H]1C | inactive | inactive
6 | C[C@@H]1CN([C@@H](C)CO)C(=O)c2cc(NC(=O)C3CC3)ccc2O[C@@H]1CN(C)S(=O)(=O)c1ccc(Cl)cc1 | inactive | inactive
7 | CN1CCN(C(=O)C[C@H]2CC[C@@H]3[C@@H](COc4ccc(NC(=O)c5cccs5)cc4C(=O)N3C)O2)CC1 | inactive | inactive
8 | C[C@H](CO)N1C[C@H](C)[C@@H](CN(C)S(=O)(=O)c2cccs2)Oc2ccc(NC(=O)Cn3cnnn3)cc2C1=O | inactive | inactive
9 | C[C@@H]1CN([C@H](C)CO)C(=O)c2cc(NC(=O)Nc3cccc4ccccc34)ccc2O[C@H]1CN(C)C(=O)Nc1ccc(F)cc1 | inactive | inactive
10 | NCC(=O)OCc1ccccc1 | inactive | inactive
11 | C[C@@H]1CCCCO[C@@H](CN(C)Cc2ccc(C(F)(F)F)cc2)[C@H](C)CN([C@@H](C)CO)C(=O)c2cc(NC(=O)c3ccccc3)ccc2O1 | inactive | inactive
12 | COC(=O)c1c2oc(c1C(=O)OC)C(=O)N(C)Cc1cn(nn1)C[C@@H](Cc1ccccc1)NC(=O)N[C@H](COC(=O)NCCCCCC(=O)NO)CC2 | inactive | inactive
13 | Cc1noc(C)c1NC(=O)N(C)C[C@H]1Oc2ccc(NC(=O)C3CC3)cc2CC(=O)N([C@@H](C)CO)C[C@@H]1C | inactive | inactive
14 | C[C@@H]1CN([C@@H](C)CO)C(=O)c2cc(C#C[C@@H](C)O)cnc2O[C@H]1CN(C)C(=O)CN1CCOCC1 | inactive | inactive
15 | C[C@H](CO)N1C[C@H](C)[C@@H](CN(C)CC2CCCCC2)Oc2c(NC(=O)Nc3ccc(C(F)(F)F)cc3)cccc2C1=O | active | inactive
16 | C[C@@H]1CCCCO[C@@H](CN(C)Cc2ccc(C(F)(F)F)cc2)[C@H](C)CN([C@H](C)CO)C(=O)c2cc(NC(=O)Nc3ccc(C(F)(F)F)cc3)ccc2O1 | inactive | inactive
17 | C[C@@H]1CCCCO[C@@H](CN(C)C(=O)C2CCCCC2)[C@H](C)CN([C@@H](C)CO)C(=O)c2cc(NC(=O)NC3CCCCC3)ccc2O1 | inactive | inactive
18 | Cc1ccc(S(=O)(=O)N(C)C[C@@H]2Oc3ncc(Br)cc3C(=O)N([C@H](C)CO)C[C@@H]2C)cc1 | inactive | inactive
19 | COc1cc(C(=O)OCCCN2CCN(CCCOC(=O)c3cc(OC)c(OC)c(OC)c3)CC2)cc(OC)c1OC | inactive | inactive

Row | SMILES | cytotoxicity call [1] | growth inhibition call [2]
20 | COC(=O)C[C@@H]1CC[C@H]2[C@H](COc3ccc(NS(=O)(=O)c4ccccc4Cl)cc3C(=O)N2C)O1 | inactive | inactive
21 | Cc1noc(C)c1NC(=O)N(C)C[C@@H]1Oc2c(NS(=O)(=O)c3cn(C)cn3)cccc2C(=O)N([C@H](C)CO)C[C@H]1C | inactive | inactive
22 | C[C@H](CO)N1C[C@H](C)[C@H](CN(C)Cc2ccncc2)OCCCC[C@H](C)Oc2ccc(NC(=O)Nc3ccccc3)cc2C1=O | inactive | inactive
23 | C[C@H]1CN([C@@H](C)CO)C(=O)Cc2cc(NC(=O)Cc3cn(C)c4ccccc34)ccc2O[C@@H]1CN(C)Cc1ccc(Cl)c(Cl)c1 | active | inactive
24 | Cc1ccc(S(=O)(=O)N(C)C[C@@H]2Oc3ccc(NS(=O)(=O)c4c(C)noc4C)cc3C(=O)N([C@H](C)CO)C[C@H]2C)cc1 | inactive | inactive
25 | COc1ccc(NC(=O)Nc2ccc3c(c2)C(=O)N([C@@H](C)CO)C[C@@H](C)[C@H](CN(C)CC2CCCCC2)OCCCC[C@H](C)O3)cc1 | inactive | inactive
26 | O=C(C[C@@H]1C[C@@H]2c3cc(NC(=O)c4ccc5c(c4)OCO5)ccc3O[C@@H]2[C@@H](CO)O1)NCCc1ccccc1 | inactive | inactive
27 | CN(C)CCCCNC(=O)[C@@H]1C[C@@H]2C(=O)N[C@@H](CCCC[N+](C)(C)C)C(=O)N2[C@@H]1c1ccc(O)cc1 | inactive | inactive
28 | C/N=C1\S[C@@H](CC(=O)NC(C)C)C(=O)N1C | inactive | inactive
29 | COC(=O)c1c2oc(c1C(=O)OC)C(=O)N[C@@H](Cc1ccccc1)Cn1cc(nn1)[C@H](Cc1ccccc1)NC(=O)N[C@@H](CO)CC2 | inactive | inactive
30 | C[C@H]1CN([C@@H](C)CO)C(=O)c2cccc(NC(=O)Nc3cccc4ccccc34)c2O[C@H]1CN(C)CC1CCCCC1 | inactive | inactive
31 | C[C@@H]1CN([C@H](C)CO)C(=O)c2cccc(NS(=O)(=O)c3ccccc3)c2O[C@@H]1CN(C)S(=O)(=O)c1ccccc1 | inactive | inactive
32 | COc1ccc(NC(=O)N[C@H]2CC[C@@H](CCNC(=O)CN3CCOCC3)O[C@@H]2CO)cc1 | inactive | inactive
33 | CCOC(=O)c1c(CN2CCN(c3ccccc3)CC2)n(-c2ccccc2)c2cc(Br)c(OC)cc12 | inactive | inactive
34 | Cc1ccc(S(=O)(=O)N(C)C[C@@H]2Oc3cc(Br)ccc3S(=O)(=O)N([C@H](C)CO)C[C@@H]2C)cc1 | inactive | inactive
35 | C[C@@H]1CCCCO[C@@H](CN(C)Cc2ccncc2)[C@@H](C)CN([C@H](C)CO)C(=O)c2cc(NC(=O)C3CCCCC3)ccc2O1 | inactive | inactive
36 | CO[C@H]1CN(C)C(=O)c2cc(NC(=O)Nc3cccc(Cl)c3)ccc2OC[C@@H](C)N(C(=O)Nc2c(C)noc2C)C[C@@H]1C | inactive | inactive
37 | C[C@@H]1CN([C@H](C)CO)C(=O)c2cc(NC(=O)Nc3ccccc3)ccc2O[C@@H]1CN(C)Cc1ccc(Cl)c(Cl)c1 | inactive | inactive
38 | COc1ccc2c3c(n(c2c1)C)[C@H](CO)N(C[C@]13CCN(CC1)Cc1ccccc1F)C(=O)Nc1ccc(cc1)F | inactive | inactive

Row | SMILES | cytotoxicity call [1] | growth inhibition call [2]
39 | C[C@@H]1CCCCO[C@H](CN(C)S(=O)(=O)c2ccccc2)[C@@H](C)CN([C@@H](C)CO)C(=O)c2cc(NC(=O)c3ccccc3)ccc2O1 | inactive | inactive
40 | C[C@@H]1CN([C@@H](C)CO)C(=O)c2cc(C#CC3(O)CCCC3)cnc2O[C@H]1CN(C)C(=O)CN(C)C | inactive | inactive
41 | Cc1noc(C)c1S(=O)(=O)N(C)C[C@H]1Oc2ccc(NS(=O)(=O)c3cccs3)cc2CC(=O)N([C@@H](C)CO)C[C@H]1C | inactive | inactive
42 | C[C@@H]1CN([C@@H](C)CO)S(=O)(=O)c2ccc(Br)cc2O[C@H]1CN(C)C(=O)C1CCCCC1 | inactive | inactive
43 | COc1ccc2c3c(n(c2c1)C)[C@H](CO)N(C[C@]13CCN(CC1)C(=O)Nc1ccc(cc1F)F)C(=O)Nc1ccc(cc1)F | inactive | inactive
44 | CC(C)CC#Cc1ccc2c(c1)O[C@H](CN(C)C(=O)c1cccnc1)[C@@H](C)CN([C@@H](C)CO)S2(=O)=O | inactive | inactive
45 | C[C@@H]1CCCCO[C@H](CN(C)C(=O)Nc2ccc(C(F)(F)F)cc2)[C@H](C)CN([C@@H](C)CO)C(=O)c2cc(NC(=O)C3CCCCC3)ccc2O1 | inactive | inactive
46 | COc1ccc(NC(=O)N(C)C[C@H]2OCCCC[C@H](C)Oc3ccc(NC(=O)Nc4ccc(F)cc4)cc3C(=O)N([C@@H](C)CO)C[C@H]2C)cc1 | inactive | inactive
47 | C[C@H]1OC(=O)CC[C@@H](O)/C=C/[C@@H](O)[C@@H]1O | inactive | inactive
48 | CC(C)=CCCC(C)=CCOc1ccc2ccc(=O)oc2c1 | inactive | inactive
49 | C[C@H](CO)N1C[C@H](C)[C@H](CN(C)C(=O)Nc2cccc3ccccc23)Oc2ncc(C#Cc3cccc(F)c3)cc2C1=O | inactive | inactive
50 | COc1ccc(NC(=O)Nc2ccc3c(c2)CC(=O)N([C@H](C)CO)C[C@H](C)[C@@H](CN(C)Cc2ccc(-c4ccccc4)cc2)O3)cc1 | active | inactive
51 | Cc1noc(C)c1NC(=O)Nc1ccc2c(c1)C(=O)N([C@H](C)CO)C[C@H](C)[C@H](CN(C)Cc1ccc(Cl)c(Cl)c1)OCCCC[C@H](C)O2 | inactive | inactive
52 | COc1ccc(CN(C)C[C@@H]2OCCCC[C@@H](C)Oc3ccc(NS(=O)(=O)c4ccc(OC)cc4)cc3C(=O)N([C@@H](C)CO)C[C@H]2C)cc1 | inactive | inactive
53 | COc1cccc(S(=O)(=O)N(C)C[C@@H]2Oc3cc(C4=CCCC4)ccc3S(=O)(=O)N([C@@H](C)CO)C[C@H]2C)c1 | inactive | inactive
54 | COCC(=O)Nc1ccc2c(c1)C(=O)N(C)C[C@@H](OC)[C@@H](C)CN(Cc1ccccc1OC)[C@H](C)CO2 | inactive | inactive
55 | C[C@H]1CN([C@@H](C)CO)C(=O)Cc2cc(NC(=O)Cc3cn(C)c4ccccc34)ccc2O[C@@H]1CN(C)S(C)(=O)=O | inactive | inactive
56 | COc1ccc(NC(=O)N(C)C[C@H]2Oc3ccc(NS(=O)(=O)c4cn(C)cn4)cc3CC(=O)N([C@@H](C)CO)C[C@H]2C)cc1 | inactive | inactive
57 | CO[C@H]1O[C@H](CO)[C@@H](OC(=O)Nc2ccccc2-c2ccccc2)[C@H](OC(=O)Nc2ccc3c(c2)OCO3)[C@H]1OC(=O)Nc1ccc2c(c1)OCO2 | inactive | inactive
